# The whole screen tested about 39,000 compounds, of which about 220 (0.56%) showed activity. The list shows a part of the results.
# Tested on: Escherichia coli K-12 BW25113
# Experiment: relative growth (OD600 normalised to plate interquartile mean) (fraction); higher = less growth inhibition, active = 0.2 or less
# Conditions: 50 µM; LB; incubation time: overnight (16-24 h)
# 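Note: static incubation at 37 °C against the wild-type strain, values averaged over two biological replicates.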
row,SMILES,relative growth
1,COc1cccc(S(=O)(=O)N2C[C@H](O)COC[C@H]3O[C@H](CC(=O)N4CCN(c5ccccc5)CC4)CC[C@@H]32)c1,inactive: 1.01
2,Cc1noc(C)c1NC(=O)N(C)C[C@H]1Oc2ccc(NC(=O)Nc3cccc4ccccc34)cc2C(=O)N([C@@H](C)CO)C[C@H]1C,inactive: 0.991
3,Cc1noc(C)c1NC(=O)Nc1ccc2c(c1)C(=O)N([C@H](C)CO)C[C@H](C)[C@H](CN(C)Cc1ccc3c(c1)OCO3)OCCCC[C@H](C)O2,inactive: 0.99
4,Cc1noc(C)c1S(=O)(=O)N(C)C[C@@H]1Oc2ccc(NC(=O)CCC(F)(F)F)cc2CC(=O)N([C@H](C)CO)C[C@@H]1C,inactive: 1.02
5,C[C@H]1CCCCO[C@H](CN(C)C(=O)Nc2ccccc2)[C@@H](C)CN([C@@H](C)CO)C(=O)c2cc(NC(=O)C3CCCCC3)ccc2O1,inactive: 0.986
6,CN1C(=O)c2cc(NS(=O)(=O)c3ccc(F)cc3)ccc2OC[C@H]2O[C@@H](CC(=O)NCC(F)(F)F)CC[C@H]21,inactive: 1.01
7,COc1ccc2c3c([nH]c2c1)[C@H](CO)N(C[C@]13CCN(CC1)CC1CCOCC1)S(=O)(=O)c1cn(cn1)C,inactive: 1.01
8,C[C@@H]1CN([C@H](C)CO)C(=O)c2cc(NS(=O)(=O)c3cn(C)cn3)ccc2O[C@@H]1CN(C)Cc1ccc2c(c1)OCO2,inactive: 1
9,COc1ccc(S(=O)(=O)Nc2ccc3c(c2)C(=O)N([C@@H](C)CO)C[C@@H](C)[C@@H](CN(C)C(=O)NC2CCCCC2)OCCCC[C@@H](C)O3)cc1,inactive: 1.01
10,COc1ccc(CN(C)C[C@@H]2OCCCC[C@@H](C)Oc3ccc(NS(=O)(=O)c4ccccc4)cc3C(=O)N([C@@H](C)CO)C[C@@H]2C)cc1,inactive: 1.01
11,C[C@@H]1CCCCO[C@@H](CN(C)C(=O)Nc2ccc(F)cc2)[C@@H](C)CN([C@H](C)CO)C(=O)c2cc(NC(=O)CCCN(C)C)ccc2O1,inactive: 0.997
12,Cc1ccc(S(=O)(=O)N(C)C[C@H]2Oc3ccc(NC(=O)Cn4cnnn4)cc3CC(=O)N([C@H](C)CO)C[C@H]2C)cc1,inactive: 0.994
13,COc1ccc(S(=O)(=O)Nc2ccc3c(c2)C(=O)N([C@H](C)CO)C[C@@H](C)[C@H](CN(C)C(=O)Nc2ccc4c(c2)OCO4)OCCCC[C@@H](C)O3)cc1,inactive: 0.997
14,NC(=O)NC(=O)C[C@H]1Nc2ccccc2NC1=O,inactive: 0.971
15,C[C@H]1CN([C@@H](C)CO)C(=O)c2cccc(NC(=O)NC3CCCCC3)c2O[C@H]1CN(C)Cc1ccc(-c2ccccc2)cc1,inactive: 0.982
16,CC(=O)Nc1ccc(OC(C)=O)cc1,inactive: 0.889
17,C[C@H]1CN([C@@H](C)CO)C(=O)Cc2cc(NC(=O)C3CCCCC3)ccc2O[C@H]1CN(C)C(=O)Nc1cccc2ccccc12,inactive: 0.998
18,CCC1(C)CC(=O)NC1=O (configuration not stated),inactive: 0.995
19,OCCN1CCN(c2ncnc3c2ncn3[C@H]2CN(Cc3ccc(Cl)cc3)C[C@@H](CO)O2)CC1,inactive: 1.02

row,SMILES,relative growth
1,C[C@@H]1CCCCO[C@@H](CN(C)Cc2ccc(C(F)(F)F)cc2)[C@H](C)CN([C@H](C)CO)C(=O)c2cc(NC(=O)Cc3ccccc3)ccc2O1,inactive: 1.09
2,CC(C)NC(=O)Nc1ccc2c(c1)CC(=O)N([C@@H](C)CO)C[C@H](C)[C@H](CN(C)Cc1ccc(Oc3ccccc3)cc1)O2,inactive: 0.98
3,C[C@@H]1CN([C@H](C)CO)C(=O)c2cccc(NC(=O)c3ccc(-c4nccs4)cc3)c2O[C@@H]1CN(C)Cc1ccc(C(F)(F)F)cc1,inactive: 0.996
4,COc1ccc(S(=O)(=O)N(C)C[C@@H]2Oc3ncc(C#CC(C)(C)O)cc3C(=O)N([C@H](C)CO)C[C@@H]2C)cc1,inactive: 0.988
5,CCCNC(=O)c1cc2c(c(-c3cccc(-c4cccc(OC)c4)c3)n1)[C@H](CCO)N([S@@](=O)C(C)(C)C)C2,inactive: 0.998
6,C[C@@H]1CN([C@@H](C)CO)C(=O)Cc2cc(NC(=O)Nc3ccc(F)cc3)ccc2O[C@@H]1CN(C)S(C)(=O)=O,inactive: 1.02
7,N[C@@H](Cn1ccc(=O)n(Cc2ccccc2C(=O)O)c1=O)C(=O)O,inactive: 1.01
8,COc1ccc(S(=O)(=O)Nc2cccc3c2O[C@H](CN(C)S(C)(=O)=O)[C@H](C)CN([C@@H](C)CO)C3=O)cc1,inactive: 0.969
9,CN(CCCCCCCCCCN(C)C(=O)Oc1cccc([N+](C)(C)C)c1)C(=O)Oc1cccc([N+](C)(C)C)c1,inactive: 0.953
10,C[C@H](CO)N1C[C@H](C)[C@@H](CN(C)Cc2ccc(C(F)(F)F)cc2)Oc2c(NS(C)(=O)=O)cccc2C1=O,inactive: 1.01
11,CC(C)CC#Cc1ccc2c(c1)O[C@@H](CN(C)Cc1cncnc1)[C@H](C)CN([C@H](C)CO)S2(=O)=O,inactive: 1
12,C[C@@H]1CN([C@H](C)CO)C(=O)c2cc(NS(=O)(=O)c3cccs3)ccc2O[C@@H](C)CCCCO[C@@H]1CN(C)CC1CCCCC1,inactive: 0.867
13,C[C@@H]1CCCCO[C@@H](CN(C)C(=O)C2CCCCC2)[C@H](C)CN([C@@H](C)CO)C(=O)c2cc(NS(=O)(=O)c3ccccc3)ccc2O1,inactive: 1.02
14,C[C@@H]1CN([C@H](C)CO)S(=O)(=O)c2ccc(C#C[C@@H](C)O)cc2O[C@H]1CN(C)C(=O)Nc1ccccc1,inactive: 1.02
15,COc1ccccc1S(=O)(=O)N(C)C[C@@H]1OCc2cn(nn2)CCCC(=O)N([C@@H](C)CO)C[C@H]1C,inactive: 0.962
16,Cc1ccccc1S(=O)(=O)N1C[C@@H](O)COC[C@@H]2O[C@H](CC(=O)N3CCN(C)CC3)CC[C@H]21,inactive: 0.981
17,C[C@H](CO)N1C[C@H](C)[C@@H](CN(C)C(=O)Nc2ccccc2C(F)(F)F)OCc2ccccc2-c2ccccc2C1=O,inactive: 0.995
18,COc1cccc(NC(=O)C[C@@H]2CC[C@@H]3[C@@H](COc4ccc(NC(=O)C5CCOCC5)cc4C(=O)N3C)O2)c1,inactive: 1.02
